# Results published in ChEMBL document CHEMBL1157539, “Thousands of chemical starting points for antimalarial lead identification” (Nature, 2010).
# Over roughly 13,000 compounds, “IFI” has its median near 4; the highest 2% begin near 17. This is one part of the list.
# Assay: GSK_TCMDC: Inhibition Frequency Index (IFI). The number of non-kinase HTS assays where a compound showed > 50 % inhibition, expressed as a percentage of the number of such assays in which the compound was tested (-0 is zero)
# Format: functional
row,SMILES,IFI
1,COc1ccc(Nc2ncc3c(-c4cccc(NC(=O)Cc5cccnc5)c4)c[nH]c3n2)cc1OC,4.9%
2,Cn1cncc1C(=O)Nc1cccc(-c2ccc(-c3nc4cc(F)ccc4[nH]3)s2)c1,-0%
3,COc1cc2nc(-c3ccc(Br)cc3)cc(N)c2cc1OC,11.1%
4,CC(=O)Nc1cccc(/C=C/C(=O)N2CCC(N3CCCCC3)CC2)c1,0.75%
5,CCN1CCN(CC(O)CNC(=O)Nc2ccc(Cl)cc2)CC1 (centres undefined),2.72%
6,CC(=O)N1N=C(c2ccc(F)cc2)Sc2c1nc(C1CCCCC1)n2C(C)=O,3.08%
7,COCCNCc1cccc(-c2ccc3c(Nc4ccc(F)cc4Cl)ccnc3c2)c1,2.22%
8,CCc1c(CCNCCCCCCNCCc2ccc(Br)cc2)ccc(O)c1O,4.29%
9,CCCCCCCCCCS(=O)(=O)N[C@H](COCc1cccc(Oc2ccccc2)c1)COP(=O)(O)OC,0%
10,O=C(Nc1ccc2ccccc2c1)c1ccc(CN2CCC(Cc3ccccc3)CC2)cc1,6.21%
11,Fc1ccc2[nH]ccc(=NN=CC=Cc3ccccc3)c2c1,2.24%
12,O=C(Nc1ccc(-c2ccc(-c3nc4cc(C(F)(F)F)ccc4[nH]3)cc2)cc1)Nc1ccc(F)c(F)c1F,2.97%
13,N#Cc1ccc2c(c1)CCN(CCC1CCC(Nc3ncnc4ccccc34)CC1)C2 (centres undefined),7.25%
14,O=C(Nc1ccc(-c2ccc(-c3nc4ccccc4[nH]3)s2)cc1)Nc1ccc(Cl)c(Cl)c1,4.04%
15,O=C(N[C@@H](Cc1ccccc1)C(=O)NC1CCCCCC1)c1ccc(O)c(-c2cccc(C(F)(F)F)c2)c1,2.19%
16,Cc1nc(-c2ccc3c(c2)CCN(CCC2CCC(NC(=O)c4cc5cccc(Cl)c5[nH]4)CC2)CC3)no1 (centres undefined),7.35%
17,O=C(NC1CCN(Cc2ccccc2)CC1)c1cc(-c2cccnc2)nc2ccc(Cl)cc12,-0%
18,COc1ccc(CNCc2ccc(F)cc2)cc1-c1ccc(S(=O)(=O)NCCN2CCCC2)cc1,10.9%
19,CCOc1ccc2c(N/N=C/c3cccc([N+](=O)[O-])c3)cc(C)nc2c1,3.29%
20,Cc1cc(N)nc2ccc(-c3cccc(CN)c3)cc12,4.14%

row,SMILES,IFI
1,COc1ccc(CN2C(=S)N(Cc3ccccc3)C(=O)C2CC(=O)Nc2ccccc2)cc1OC (centres undefined),3.42%
2,O=C(Nc1cc(Cl)cc(Cl)c1)c1cnn(-c2ccc(F)cc2)c1C1CCNCC1,3.96%
3,CC(C)(C)c1ccc(CNC(=O)c2cc(CNC3CCC(N)CC3)ccc2O)cc1 (centres undefined),2.94%
4,CCCCCN1CCN(Cc2cccc(NC(=O)c3ccc(Cl)c(Cl)c3)c2)CC1,6.62%
5,COc1ccc(NS(=O)(=O)c2ccccc2Br)cc1N1CCN(C)CC1,-0%
6,CN1CCN(c2cc3c(Nc4ccc5c(cnn5Cc5ccccc5)c4)ncnc3cn2)CC1,3.1%
7,COc1ccc(CNC(=O)Nc2cccc(-c3csc(NC(=N)N)n3)c2)cc1,0.77%
8,COc1ccc(CCN(C)CCOc2ccc(NC(=O)COc3ccc4sc5ccccc5c(=O)c4c3)cc2)cc1OC,16.1%
9,CC(C)(C)C(=O)Nc1ccc(C(=O)Nc2cccc(-c3nc4ccccc4[nH]3)c2)cc1,2.84%
10,O=C(/C=C/c1ccc(Cl)c(Cl)c1)NCCCCCN1CCCC(CNC(=O)Nc2ccc(C(F)(F)F)cc2)C1 (centres undefined),17.7%
11,COc1ccc(-c2cc(C(=O)N3CCc4ccccc43)c3ccccc3n2)cc1OC,2%
12,O=C(NCCN1CCC(c2ccncc2)CC1)c1cccc(Nc2nccc(Nc3ccc(Oc4ccccc4)cc3)n2)c1,5.97%
13,Nc1nccc2ccc(-c3ccnc(NCc4cccnc4)n3)cc12,5.56%
14,O=C(c1cc(-c2cccs2)n[nH]1)N1CCN(S(=O)(=O)c2ccc(Cl)cc2)CC1,-0%
15,COCCNCc1ncsc1-c1ccc2c(Nc3ccc(Oc4ccccc4)cc3)ccnc2c1,7.35%
16,CN(C)CCNCc1ccc(-c2ccc3c(Nc4ccc(Oc5ccccc5)cc4)ccnc3c2)o1,7.19%
17,CC(C)c1sc(N2CCN(C)CC2)nc1C(=O)Nc1cccc2c1CCCC2,3.85%
18,O=C(Nc1ccccc1)c1ccc(N2CCC(COc3cccc(C(F)(F)F)c3)CC2)nc1,0%
19,COc1ccc2c(Nc3ccc(N4CCN(C)CC4)cc3)cc(C)nc2c1,4.44%
20,C=C(C)CSc1nc2c(c(=O)n1Cc1ccco1)C1(CCCCC1)Cc1ccccc1-2,2.9%

row,SMILES,IFI
1,CC(C)N1CCN(C(CN2CCN(CCCOc3cccc(F)c3)CC2)c2ccc(F)cc2)CC1 (centres undefined),6.2%
2,CC1(C)CC(=O)c2c(O)cc(OCc3ccncc3)cc2O1,-0%
3,Cc1ccc(F)cc1S(=O)(=O)Nc1cccc(CCN2CCC(N3CCCCC3)CC2)c1,6.25%
4,N#Cc1ccc(N[C@@H](CC2CCCCC2)C(=O)N[C@@H]2CCCc3ccccc32)c2ccccc12,2.88%
5,Oc1ccc(CCNc2nc(N/N=C/c3ccc(Cl)cc3)nc(N3CCNCC3)n2)cc1,0.75%
6,CC(C)(C)C(=O)Nc1ccccc1Oc1ccc(Cl)cc1,0.72%
7,COc1ccc2ncc(F)c(CCN3CCC4(CC3)COC(c3cc5c(cn3)OCCO5)=N4)c2n1,3.52%
8,Fc1ccc(Nc2ccnc3cc(-c4cccc(CN5CCCCC5)c4)ccc23)c(Cl)c1,0.73%
9,CCN1CCC(N(Cc2ccc(-c3ccc(Cl)cc3)cc2)C(=O)Cn2c(CCc3cccc(F)c3F)cc(=O)c3ccccc32)CC1,14.1%
10,COc1ccc(NC(=O)Nc2cccc(-c3ccncc3)c2)cc1N1CCN(C)CC1,0.73%
11,Cc1nc(-c2nc(NCc3ccncc3)ncc2-c2ccsc2)sc1C,6.9%
12,COc1ccc(NC(=O)Nc2ccc(-c3ccncc3)c(Cl)c2)cc1N1CCN(C)CC1,4.32%
13,c1ccc(CNCc2cccc(-c3ccc(-c4nc5ccccc5[nH]4)cc3)c2)cc1,5.83%
14,CC(C)Oc1cccc(-c2ccc(C(=O)NCC3CCCN(Cc4cccc(C(F)(F)F)c4)C3)s2)c1 (centres undefined),3.64%
15,CCN1CCN(c2ccc(Nc3c4ccccc4nc4ccccc34)cc2)CC1,6.52%
16,COc1ccc(CNC(=O)NC2CCN(c3ccnc(Nc4ccc(F)cc4)n3)C2)cc1 (centres undefined),7.58%
17,COc1ccc2nccc([C@@H](O)CN3CCC(NCc4ccc5c(c4)sc(=O)n5C)CC3)c2c1,1.44%
18,Cn1c(Nc2cc(C(C)(C)C)on2)nc2cc(Nc3ccnc(Nc4cccc(CS(C)(=O)=O)c4)n3)ccc21,2.83%
19,COc1ccccc1CNc1nc(Nc2ccccc2C)nc2ccccc12,6.29%
